# Some of the results follow. Single values are uncertain, as repeats are few or missing.
# What was measured:
# Assay in all cases: cell viability relative to vehicle (% of vehicle); basal-like triple-negative breast cancer lines; higher = less cytotoxic
# Settings in all cases: 10 µM; 72 h
# HCC-1143 = tested on: HCC-1143
# HCC-1187 = tested on: HCC-1187
# MDA-468 = tested on: MDA-468
# SUM-149 = tested on: SUM-149
# 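Note: stably firefly luciferase-GFP labeled cells in 96-well plates, viability read as luciferase photon flux after d-luciferin addition, treated wells normalized to vehicle wells, single-dose high-throughput screen.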
Structure (SMILES),cell viability (HCC-1143),cell viability (HCC-1187),cell viability (MDA-468),cell viability (SUM-149)
CCN(C)C(=O)Oc1cccc(C(C)N(C)C)c1 (centres undefined) [Rivastigmine],89.7,108,84.9,117
CC(=O)OC1CC2CCC3C(CCC4(C)C3CC([N+]3(C)CCCCC3)C4OC(C)=O)C2(C)CC1[N+]1(C)CCCCC1.[Br-].[Br-] (centres undefined) [Pancuronium dibromide],85.6,86.5,95.1,117
CCC(COC(=O)c1cc(OC)c(OC)c(OC)c1)(c1ccccc1)N(C)C (centres undefined) [Trimebutine],83.4,90.7,95.2,102
CN1c2ccccc2C(NCCCCCCC(=O)[O-])c2ccc(Cl)cc2S1(=O)=O.[Na+] (centres undefined) [Tianeptine sodium],86.5,74.7,82.1,135
COc1ccc(C(CN(C)C)C2(O)CCCCC2)cc1.Cl (centres undefined) [Venlafaxine],83.2,131,96.8,123
N/C(N)=N\N.Cl [Aminoguanidine hydrochloride],76.2,78.7,98.5,88.7
C[N+]1(C)[C@@H]2C[C@@H](OC(=O)C(CO)c3ccccc3)C[C@H]1[C@@H]1O[C@@H]12.[Br-] (some centres undefined) [Methscopolamine],83.4,76.3,93.5,133
O=P1(N(CCCl)CCCl)NCCCO1 (centres undefined) [Cyclophosphamide],86.1,89.7,88.3,108
Cc1cccc(C(C)c2cnc[nH]2)c1C (centres undefined) [Dexmedetomidine],93.3,109,104,95.6
CCN(C)C(=O)Oc1cccc(C(C)N(C)C)c1.O=C(O)C(O)C(O)C(=O)O (centres undefined) [Rivastigmine Tartrate],79.7,103,122,105
C[C@]12COC(=O)C[C@@H]1CC[C@@H]1[C@@H]2CC[C@@]2(C)[C@H]1CC[C@]2(C)O [Oxandrolone],72.2,92.6,116,105
Cc1cc(C(C#N)c2ccc(Cl)cc2)c(Cl)cc1NC(=O)c1cc(I)cc(I)c1[O-].[Na+] (centres undefined) [Closantel Sodium],67.6,100,102,99.5
Cl.NCCc1c[nH]c2ccc(O)cc12 [Serotonin HCl],92.1,111,121,101
N#Cc1ccccc1-c1cc(-c2ccccn2)cn(-c2ccccc2)c1=O [Perampanel],91.9,91.8,89.7,126
Cc1cccc(C)c1NC1=NCCCS1.Cl [Xylazine HCl],113,121,127,118
O=C(O)c1nn(Cc2ccc(Cl)cc2Cl)c2ccccc12 [Lonidamine],77.7,105,107,111
Nc1nc(N)nc(NC2CC2)n1 [Cyromazine],101,105,113,97.8
"Cl.NCC(O)c1ccc(O)cc1 (racemic) [(+,-)-Octopamine HCl]",75,92.6,113,99.2
CN1C(=O)CCS(=O)(=O)C1c1ccc(Cl)cc1 (centres undefined) [Chlormezanone],75.3,76,112,129
CC(C)CC(CN)CC(=O)O (centres undefined) [Pregabalin],85,99.1,82.2,117
C=CCN1CCC23c4c5ccc(O)c4OC2C(=O)CCC3(O)C1C5.Cl (centres undefined) [Naloxone HCl],82.1,77.1,88.4,111
NCC1(CC(=O)O)CCCCC1 [Gabapentin],78.2,69.5,89.6,89.4
Cl.Cn1c(CCCC(=O)O)nc2cc(N(CCCl)CCCl)ccc21 [Bendamustine HCl],91.9,88.4,86.3,102
Cc1cc(C(C#N)c2ccc(Cl)cc2)c(Cl)cc1NC(=O)c1cc(I)cc(I)c1O (centres undefined) [Closantel],66.3,91.8,89,98
CN1C2CCC1CC(OC(=O)C(CO)c1ccccc1)C2.CN1C2CCC1CC(OC(=O)C(CO)c1ccccc1)C2.O.O=S(=O)(O)O (centres undefined) [Atropine],78.9,99.1,97.7,86.3
O=c1[nH]c2ccccc2n1CCCN1CCC(n2c(=O)[nH]c3cc(Cl)ccc32)CC1 [Domperidone],109,147,155,167
